# Laboratory results from the supplement of paper PMC4604168 (melanoma cell lines).
# The other results are listed elsewhere or left out. Many values rest on one well or one pass, so single values are uncertain.
# Assays:
# Assay in all cases: cell count relative to DMSO control; melanoma cells; higher = more viable cells
# Details in all cases: library dose: standard library concentration; 72 h
# SkMel28 = system: SkMel28
# SkMel2 = system: SkMel2
# SkMel30 = system: SkMel30
# SkMel5 = system: SkMel5
# UACC257 = system: UACC257
# UACC62 = system: UACC62
# WM115 = system: WM115
# WM1716 = system: WM1716
# WM3526 = system: WM3526
# 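Also: cells treated in 1,536-well plates, then fixed and DAPI-stained, with nuclei counted from automated high-throughput microscope images.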
Structure (SMILES),cell count (SkMel28) [%],cell count (SkMel2) [%],cell count (SkMel30) [%],cell count (SkMel5) [%],cell count (UACC257) [%],cell count (UACC62) [%],cell count (WM115) [%],cell count (WM1716) [%],cell count (WM3526) [%]
"N.N.[Cl][Pt][Cl] [cisplatin] + c1cc(-c2cnn3cc(-c4ccc(OCCN5CCCCC5)cc4)cnc23)ccn1 [Dorsomorphin] (first compound 8 µM, partner dose 2 µM)",60.1,86.8,74.9,55,75.8,76,50.6,80.8,89.6
"Cn1cc(C2=C(c3cn(C4CCN(Cc5ccccn5)CC4)c4ccccc34)C(=O)NC2=O)c2ccccc21 [Enzastaurin] + O=C(O)C(=O)Nc1sc2c(c1C(=O)O)CCNC2 [TCS401] (first compound 4 µM, partner dose 8.33333 µM)",98,82.2,124,90.5,85.8,82,92.2,75.7,92.8
"Cn1cc(C2=C(c3cn(C4CCN(Cc5ccccn5)CC4)c4ccccc34)C(=O)NC2=O)c2ccccc21 [Enzastaurin] + N#Cc1c(O)c2c(-c3ccc(-c4ccccc4O)cc3)csc2[nH]c1=O [A769662] (first compound 4 µM, partner dose 10 µM)",92.8,86.2,96.2,100,110,92.1,128,82.6,104
"N.N.[Cl][Pt][Cl] [cisplatin] + O=C(Nc1ccccc1)c1cc([N+](=O)[O-])ccc1Cl [GW9662] (first compound 8 µM, partner dose 10 µM)",53.5,79.2,87.1,80.8,62.8,82.8,83.5,97.6,84.5
"C[C@]12O[C@H](C[C@]1(O)CO)n1c3ccccc3c3c4c(c5c6ccccc6n2c5c31)CNC4=O [Lestaurtinib] + COc1cc(N2CCC(N3CCN(C)CC3)CC2)ccc1Nc1ncc(Cl)c(Nc2ccccc2S(=O)(=O)C(C)C)n1 [NVP-TAE684] (first compound 0.02 µM, partner dose 0.4 µM)",50.4,55.9,55.4,61.1,80.4,63.2,65.2,83.8,50.9
"N.N.[Cl][Pt][Cl] [cisplatin] + Oc1cc(-c2nc(-c3ccccc3)[nH]c2-c2ccncc2)ccc1Cl [L779450] (first compound 8 µM, partner dose 1 µM)",41.8,31.4,81.6,67,88.9,49.1,57.5,78.6,44.4
"Cn1cc(C2=C(c3cn(C4CCN(Cc5ccccn5)CC4)c4ccccc34)C(=O)NC2=O)c2ccccc21 [Enzastaurin] + CCN(CC)CCCCNc1ncc2cc(-c3cc(OC)cc(OC)c3)c(NC(=O)NC(C)(C)C)nc2n1 [PD173074] (first compound 4 µM, partner dose 0.5 µM)",101,82.3,92.3,99.8,111,85.8,120,74.1,96.1
